Test results from patent US20220340685A1, “COMBINATION THERAPY WITH ENTPD2 AND CD73 ANTIBODIES” (Novartis AG, priority 2019, published 2022).
Positions count from the first letter of the chain named.

T1: Human ENTPD1 (NP_001767) expressing NIH/3T3 cells (Homo sapiens, UniProt P49961)
T1 construct: expressed in transfected cells; host or cells: NIH/3T3 (retroviral transduction, FACS-sorted)
T1 sequence (P49961 1-510): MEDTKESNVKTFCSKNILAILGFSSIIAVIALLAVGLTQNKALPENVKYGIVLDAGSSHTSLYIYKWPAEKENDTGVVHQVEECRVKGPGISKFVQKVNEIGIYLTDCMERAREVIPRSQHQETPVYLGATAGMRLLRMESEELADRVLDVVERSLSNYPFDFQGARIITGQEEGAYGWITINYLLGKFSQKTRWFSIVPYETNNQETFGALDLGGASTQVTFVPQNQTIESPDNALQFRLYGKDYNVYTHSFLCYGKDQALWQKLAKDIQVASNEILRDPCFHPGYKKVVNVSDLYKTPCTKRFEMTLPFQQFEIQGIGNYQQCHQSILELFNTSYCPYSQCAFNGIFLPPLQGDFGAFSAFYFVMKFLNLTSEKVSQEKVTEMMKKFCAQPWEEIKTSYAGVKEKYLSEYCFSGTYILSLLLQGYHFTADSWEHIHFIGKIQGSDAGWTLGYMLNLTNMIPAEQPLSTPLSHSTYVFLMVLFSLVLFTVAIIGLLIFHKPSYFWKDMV

T2: recombinant human ENTPD2 (residues 29-462) (Homo sapiens, UniProt Q9Y5L3)
T2 construct: residues 29-462 of human or cyno ENTPD2; GP67 signal peptide (N); made in house; host or cells: High Five (Trichoplusia ni) insect cells, baculovirus
T2 sequence (Q9Y5L3 29-462): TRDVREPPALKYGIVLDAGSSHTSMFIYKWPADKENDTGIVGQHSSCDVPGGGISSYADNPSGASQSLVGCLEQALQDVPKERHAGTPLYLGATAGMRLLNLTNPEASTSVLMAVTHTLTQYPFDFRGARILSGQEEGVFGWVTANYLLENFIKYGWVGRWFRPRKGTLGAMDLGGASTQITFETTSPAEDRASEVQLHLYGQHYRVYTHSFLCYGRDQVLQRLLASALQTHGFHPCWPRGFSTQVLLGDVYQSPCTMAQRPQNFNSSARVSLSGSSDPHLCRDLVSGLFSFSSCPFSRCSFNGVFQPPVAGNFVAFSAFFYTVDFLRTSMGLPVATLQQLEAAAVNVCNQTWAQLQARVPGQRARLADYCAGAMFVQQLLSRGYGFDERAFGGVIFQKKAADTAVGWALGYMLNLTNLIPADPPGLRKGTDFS

B1: ANTI-HUMAN ENTPD2 MAB3 (antibody)
heavy: QVQLVQSGAEVVKPGASVKISCKASGYTFTDYNMDWVKQAPGQRLEWIGDINPKYDISTYNQQFKGKATITVDTSASTAYMELSSLRSEDTAVYYCARRGFFLYYGINYYYFDVWGQGTLVTVSSASTKGPSVFPLAPSSKSTSGGTAALGCLVKDYFPEPVTVSWNSGALTSGVHTFPAVLQSSGLYSLSSVVTVPSSSLGTQTYICNVNHKPSNTKVDKRV[left out - human IgG1 Fc]
light: EIVLTQSPATLSASPGERITLSCSASSSVSYIHWYQQKPGQAPRLLIYSTSNLASGIPARFSGSGSGTFYTLTISSVEPEDAAVYYCHQWSSYPWTFGGGTKLEIKRTVAAPSVFIFPPSDEQLKSGTASVVCLLNNFYPREAKVQWKVDNALQSGNSQESVTEQDSKDSTYSLSSTLTLSKADYEKHKVYACEVTHQGLSSPVTKSFNRGEC
B2: ANTI-HUMAN ENTPD2 MAB7 (antibody)
heavy: B1 heavy with T74K
light: B1 light with R18E
B3: ANTI-HUMAN ENTPD2 MAB8 (antibody)
heavy: QVQLQQSGPGLVKPSQTLSLTCAISGDSVSSSSAAWNWIRQSPSRGLEWLGRIYYRSKWYNDYAVSVKSRITINPDTSKNQFSLQLNSVTPEDTAVYYCARGSYVTSSYEGFDYWGQGTLVTVSSASTKGPSVFPLAPSSKSTSGGTAALGCLVKDYFPEPVTVSWNSGALTSGVHTFPAVLQSSGLYSLSSVVTVPSSSLGTQTYICNVNHKPSNTKVDKRV[left out - human IgG1 Fc]
light: SYELTQPLSVSVALGQTARITCSGDNLPEKYAYWYQQKPGQAPVLVIYDDNKRPSGIPERFSGSNSGNTATLTISRAQAGDEADYYCQSYGKWGWTWVFGGGTKLTVLGQPKAAPSVTLFPPSSEELQANKATLVCLISDFYPGAVTVAWKADSSPVKAGVETTTPSKQSNNKYAASSYLSLTPEQWKSHRSYSCQVTHEGSTVEKTVAPTECS
B4: ANTI-HUMAN ENTPD2 MAB9 (antibody)
heavy: QVQLVQSGAEVKKPGSSVKVSCKASGGTFDSYAVSWVRQAPGQGLEWMGRIVPWLGHTQYAQKFQGRVTITADESTSTAYMELSSLRSEDTAVYYCARESPGYRYSFDVWDQGTLVTVSSASTKGPSVFPLAPSSKSTSGGTAALGCLVKDYFPEPVTVSWNSGALTSGVHTFPAVLQSSGLYSLSSVVTVPSSSLGTQTYICNVNHKPSNTKVDKRV[left out - human IgG1 Fc]
light: SYELTQPLSVSVALGQTARITCSGDAIGEKYVYWYQQKPGQAPVLVIYDDNNRPSGIPERFSGSNSGNTATLTISRAQAGDEADYYCASYDLQQARWVFGGGTKLTVLGQPKAAPSVTLFPPSSEELQANKATLVCLISDFYPGAVTVAWKADSSPVKAGVETTTPSKQSNNKYAASSYLSLTPEQWKSHRSYSCQVTHEGSTVEKTVAPTECS
B5: ANTI-HUMAN ENTPD2 MAB10 (antibody)
heavy: B4 heavy with H57F, Q59R
light: B4 light
B6: ANTI-HUMAN ENTPD2 MAB2 (antibody)
heavy: B1 heavy with T74K
light: B1 light
B7: mAb19: anti-human ENTPD2 antibody; probably heavy chain SEQ ID NO: 252, light chain SEQ ID NO: 259 (antibody)
heavy: EVQLQQFGAELVKPGTSVKISCKASGYTFTDYNMDWVKQSHGKSLEWIGDINPNYDITTYNQRFKGKATLTVDKSSSTAYMELRSLTSEDTAVYYCARRGFFPYYGNSYYYFDVWGAGTTVTVSSASTKGPSVFPLAPSSKSTSGGTAALGCLVKDYFPEPVTVSWNSGALTSGVHTFPAVLQSSGLYSLSSVVTVPSSSLGTQTYICNVNHKPSNTKVDKRV[left out - human IgG1 Fc]
light: QIVLTQSPTIMSASLGEEITLTCSASSSVSYMHWYQQKSGTSPKLLIYSTSNLASGVPSRFSGSGSGTFYSLTISSVEAEDAADYYCHQWSNYPWTFGGGTKLEIKRTVAAPSVFIFPPSDEQLKSGTASVVCLLNNFYPREAKVQWKVDNALQSGNSQESVTEQDSKDSTYSLSSTLTLSKADYEKHKVYACEVTHQGLSSPVTKSFNRGEC
B8: mAb21: anti-human ENTPD2 antibody; probably heavy chain SEQ ID NO: 283, light chain SEQ ID NO: 289 (antibody)
heavy: EVQLQQSGPELVKPGASVKISCKTSGYTFTEYTMHWVKQSHGKSLEWIGGINPNNGITTYNQKFKGKATLTVDKSSSTAYMDLRSLTSEGSAVYYCARRGFPIYYYGTSLYYFDYWGQGTTLTVSSASTKGPSVFPLAPSSKSTSGGTAALGCLVKDYFPEPVTVSWNSGALTSGVHTFPAVLQSSGLYSLSSVVTVPSSSLGTQTYICNVNHKPSNTKVDKRV[left out - human IgG1 Fc]
light: B7 light with T9A, K38R, S49T, N92S

tested on: H520 cells; assay: Cross reactivity: FACS binding to H520 cells (ENTPD3 and ENTPD8 expression); set-up: species or system human; settings: 50 nM antibody
Description: (§1) FACS screening: Specific binding of candidate antibodies to endogenously expressed ENTPD2 was assessed by flow cytometry. Cells were rinsed thoroughly with 1× PBS and treated with Accutase (Millipore #SCR005) to lift from growth plates and resuspended at approximately 1×10^5 cells/90 μL in 1× FACS buffer (2% FBS +0.1% NaN3 in PBS). In a 96-well U-bottom plate, 10 μL of 10× antibody solution in FACS buffer was pre-seeded and 90 μL of cell suspension was added. Cell were incubated for 30 minutes at 4° C., washed 1× with cold PBS and resuspended in 100 μL of 1:500 secondary antibody 1× FACS buffer (Allophycocyanin conjugated F(ab′)2 goat anti-human IgG, Fcγ specific; Jackson Immunoresearch, Cat# 109-136-098). After additional incubation for 15 min at 4° C., cells were washed twice with PBS and resuspended in 100 μL of 1× FACS buffer with 4 μg/mL propidium iodide (Life Technologies, Cat# P3566). Geometric mean fluorescence intensity was calculated on live single cells using FlowJo software.
H520 cells were identified as a cancer cell line with ENTPD3 (Ct 25) and ENTPD8 (Ct 26) expression by Taqman and were used for selectivity screening.

Row | Molecule | Apparent FACS binding at 50 nM, H520 Cells
1 | B1 | No binding
2 | B2 | No binding
3 | B3 | No binding
4 | B4 | No binding
5 | B5 | No binding
6 | B6 | No binding

tested on: NIH/3T3 cells; assay: Cross reactivity: FACS binding to parental NIH/3T3 control cells; settings: 50 nM antibody
Description: as §1
(§2) Cross reactivity Human ENTPD1 (NP_001767) expressing NIH/3T3 cells were generated using a retroviral transduction approach. 72hrs post transduction, engineered cells were stained with the anti-Human CD39/ENTPD1 APC-conjugated Antibody (R&D systems, Minneapolis, Minn.) and live cells that expressed human ENTPD1 were separated from the rest of the population via fluorescence activated cell sorting. Stable expression of ENTPD1 was periodically re-confirmed by FACS with the above described anti-Human CD39/ENTPD1 APC-conjugated Antibody (1:100).

Row | Molecule | Apparent FACS binding at 50 nM, NIH/3T3 cells
7 | B1 | No binding
8 | B2 | No binding
9 | B3 | No binding
10 | B4 | No binding
11 | B5 | No binding
12 | B6 | No binding

target: T1, Human ENTPD1 (NP_001767) expressing NIH/3T3 cells; assay: Cross reactivity: FACS binding to human ENTPD1 expressing NIH/3T3 cells; settings: 50 nM antibody
Description: as §1, §2

Row | Molecule | Apparent FACS binding at 50 nM, NIH/3T3 - ENTPD1
13 | B1 | No binding
14 | B2 | No binding
15 | B4 | No binding
16 | B5 | No binding
17 | B6 | No binding

same assay, conditions: read-out: Apparent FACS binding, NIH/3T3 - ENTPD1 (value printed in nM)

Row | Molecule | EC50 [nM]
18 | B3 | > 100

target: T2, recombinant human ENTPD2 (residues 29-462); assay: Biochemical human ENTPD2 functional assay (Transcreener ADP2 TR-FRET); settings: not given

Row | Molecule | inhibition of the catalytic activity of recombinant human ENTPD2
19 | B7 | potently inhibit
20 | B8 | potently inhibit
